Results reported in PubChem BioAssay (NCI).
Several values for one entry are separate records, joined by “and”; a condition that tells them apart may be missing. Equal entries are not always repeated.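 In this assay, cells in 96-well plates receive the compound at five concentrations for 48 hours. Endpoints are linearly interpolated between the surrounding concentrations. GI50 is the concentration that inhibits growth by half. TGI: concentration producing complete growth inhibition.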 Peptide text beside a SMILES is read from it. * marks the point of attachment. Bn = c1ccc(C*)cc1

Each molecule was assayed on NCI-H322M lung (assay: NCI anticancer screen, dose series, 48 h).
In the case of `CCCCCc1ccc(S(=O)(=O)Nc2cc(-c3csc(NC(C)=O)n3)ccc2N2CCN(C)CC2)cc1`, the GI50 is reported as 5.48 µM and the TGI is reported as 10.1 µM.
`CC(C(=O)n1c2ccccc2c2ccccc21)N(c1ccccc1)c1ccccc1` (stereo not drawn) showed a TGI of 31.5 µM.
In the case of `CSC(SC)=C1C(=O)N(c2ccccc2)N=C1C`, the TGI is reported as over 100 µM.
`CC/C(Cl)=N\OC(=O)Nc1ccc(F)c([N+](=O)[O-])c1` gave a TGI of over 62.4 µM.
`Clc1ccc(Cl)c(SCCCN2CCNCC2)c1` was tested, and the TGI was 35.5 µM.
With `O=C1CC(Sc2nc3ccc(I)cc3c(=O)n2Cc2ccccc2)C(=O)NN1` (stereo not drawn) the TGI was over 100 µM.
`CC(=O)OCCOCNC(=S)N/N=C/c1ccc(Br)s1` showed a TGI of over 100 µM.
`O/C(=C\c1nc2ccccc2nc1NC12CC3CC(CC(C3)C1)C2)c1ccc(Br)cc1` was tested, and the TGI was over 10 µM.
`Cc1cn2c(C)csc2c1P(=O)(OC(C)C)OC(C)C` showed a TGI of over 100 µM.
`COc1cc(C(=O)N2CCc3c([nH]c4c([N+](=O)[O-])c(OC)ccc34)C2C)cc(OC)c1OC` (stereo not drawn) was tested, and the TGI was over 100 µM.
`CC(C)(C)OC(=O)N1N=NC2C1C1CC(OCc3ccccc3)(OCc3ccccc3)C2O1` (stereo not drawn) gave a TGI of over 100 µM.
With `O=c1[nH]c(=O)n([C@H]2CCCO2)cc1F` the GI50 was 948 µM and > 5000 µM and the TGI was over 5000 µM.
`CCCCCCCCCCCCOC1C(C(CC(=O)NCCN2CCCC2)NS(=O)(=O)c2cc(Cl)cc(Cl)c2)OC2OC(C)(C)OC21` (stereo not drawn) showed a GI50 of 1.52 µM and a TGI of 3.01 µM.
Molecule `COC(=O)C1(Cc2ccc3c(c2)CCC3)Cc2ccccc2C1=O` (stereo not drawn) has a TGI of over 100 µM.
Work on `Nc1nc(Nc2ccc(Cl)cc2)sc1C(=O)c1cccs1` yielded a TGI of over 100 µM.
In the case of `CC(C)C1=C2CCC3(C)C(CCC4C5C6OCC5(CCC6(C)C)CCC43C)C2(C)CC1` (stereo not drawn), the TGI is reported as over 100 µM.
For `Nc1nc(N)nc(CCCc2nc(N)nc(N)n2)n1`, the TGI was over 100 µM.
For `O=C([CH-]C(=O)c1ccccc1)c1ccccc1.O=C([CH-]C(=O)c1ccccc1)c1ccccc1.[O]=[U+2]=[O]`, the GI50 was 3.4 µM and the TGI was 60.5 µM.
`CC1C(c2ccc3c(c2)OCO3)c2cc3c(cc2OC1N1CCOCC1)OCO3` (stereo not drawn) showed a TGI of over 100 µM.
`CN(C)P(=O)(Oc1occc1C(O)Cc1ccccc1)N(C)C` (stereo not drawn) gave a TGI of over 100 µM.
In the case of `C/C(CCn1[nH]c(=O)ccc1=O)=N\OCCCc1ccccc1`, the TGI is reported as over 100 µM.
`COc1cc(C=C2C(=O)NC(=S)NC2=O)cc(OC)c1OC` was tested, and the TGI was over 100 µM.
`CCN(CC)CCNc1ccc2ncn3c4cc(OC)c(OC)c(=O)c4c(O)c1c23` was tested, and the TGI was 21.9 µM.
For `O=C(CCCN1CCC2(CC1)C(=NC1CCCCC1)NC(=O)N2c1ccccc1)c1ccc(F)cc1`, the TGI was 50.9 µM.
With `CCCOC(=O)NC(C)C(=O)NC(CCC(=O)NC(CCCC(N)C(=O)O)C(=O)NC(C)C(=O)O)C(=O)O` (stereo not drawn) the TGI was 43.7 µM.
`O=c1nc(-c2ccccc2)cc(-c2ccccc2O)[nH]1` gave a TGI of over 100 µM.
Molecule `O=C(NO)c1ccc(CN(c2cnccn2)c2cnccn2)cc1` has a GI50 of 21.3 µM and a TGI of 92.5 µM.
`CC1C(=O)OC2CC[N+]3([O-])CC=C(COC(=O)C(C)(O)C1(C)O)C23` (stereo not drawn) was tested, and the TGI was over 100 µM.
`c1ccc(-c2cnc(-c3ccc(-c4ncc(-c5ccccc5)o4)cc3)o2)cc1` was tested, and the TGI was over 100 µM.
`COC(=O)C(CC(C)C)NC(=O)C(N)Cc1ccc(OCc2ccccc2)cc1` (stereo not drawn) (H-Tyr(Bn)-Leu-OMe; configuration not given here) was tested, and the TGI was over 10 µM.
Molecule `OCC(O)CNc1ccnc2cc(Cl)ccc12` (stereo not drawn) has a TGI of over 100 µM.
Molecule `CC(C)(C)c1ccc(OCC(=O)O)c(Cl)c1` has a TGI of over 100 µM.
For `Nc1ccc2[nH]cc(CCC(=O)O)c2c1`, the TGI was over 100 µM.
`[F][Sn]([F])([c]1ccccc1)[c]1ccccc1` gave a GI50 of 1.75 µM and a TGI of 3.56 µM.
Molecule `CCOC(=O)/C(=C/c1cccc(C#N)c1)N(CC)CC` has a TGI of over 100 µM.
`Cc1cccc(C)c1NC(=O)C(=O)CC(=O)c1cccc([N+](=O)[O-])c1` gave a TGI of over 100 µM.
Molecule `CCOC(=O)Cn1c(=O)n(C)c(=O)c2c1ncn2Cc1ccccc1` has a TGI of over 100 µM.
Molecule `Cc1cc2c(nn1)-c1ccccc1C2=O` has a TGI of over 10 µM.
Work on `CCN(CC)c1cc2oc3cc(N)cc(=N)c-3nc2cc1C` yielded a GI50 of 17.1 µM and a TGI of 40 µM.
In the case of `COC(=O)CCC1=C(CC(=O)OC)C(C)=N/C1=C\c1[nH]c(-c2ccc[nH]2)cc1OC`, the GI50 is reported as 10.5 µM and the TGI is reported as 25.3 µM.
Work on `COC(=O)[C@H](Cc1ccccc1)NC(=O)c1ccc(CNC(=O)/C=C/c2cccc(Oc3ccccc3)c2)cc1` yielded a TGI of over 100 µM.
For `O=C(c1ccccc1)N1C(=S)N=C(Nc2ccccc2)C1=Nc1ccccc1`, the TGI was over 100 µM.
For `O=C1CCCc2cc3c(cc21)CC1(C3)Cc2ccc3c(c2C1)C(=O)CCC3` (stereo not drawn), the TGI was over 100 µM.
With `O=c1oc2ccc(Br)cc2c(=O)n1-c1ccc(F)cc1F` the GI50 was 2.32 µM and the TGI was over 100 µM.
`CC1=CC(=O)C(C(O)(C(F)(F)F)C(F)(F)F)C(C)(C)C1` (stereo not drawn) showed a TGI of over 10 µM.
`C[C@]12CC[C@@H]3c4ccc(O)c([N+](=O)[O-])c4CC[C@H]3[C@@H]1CC[C@@H]2NS(=O)(=O)c1cccc(Br)c1` showed a GI50 of 3.3 µM and a TGI of 11.7 µM.
`Cc1cn([C@H]2C[C@](C)(CO)N(C)O2)c(=O)[nH]c1=O` gave a TGI of over 100 µM.
For `c1ccc(C2=Nn3c(CCCCCCCCc4nnc5n4N=C(c4ccccc4)CS5)nnc3SC2)cc1`, the TGI was over 100 µM.
With `C[C@]1(S(=O)(=O)c2ccccc2)C[C@H]2N(Cc3ccccc3)[C@@H]1CCC21OCCO1` the TGI was over 100 µM.
`NS(=O)(=O)c1ccc(NC(NC(=O)C(C(F)(F)F)C(F)(F)F)(C(F)(F)F)C(F)(F)F)cc1` gave a TGI of over 100 µM.
`O=C(OCC(OC(=O)c1ccccc1)C(OC(=O)c1ccccc1)C(OC(=O)c1ccccc1)c1cnn(-c2ccccc2)n1)c1ccccc1` (stereo not drawn) was tested, and the TGI was over 100 µM.
Work on `O=C(O)CN(c1ccccc1)S(=O)(=O)c1ccc([N+](=O)[O-])cc1` yielded a TGI of over 100 µM.
Molecule `CC1=CC(=O)CC2(C)CCC(C(C)CC(=O)CC(C)C)CC12` (stereo not drawn) has a TGI of over 100 µM.
